Assay results: PMC5799093, “Proceedings of Réanimation 2018, the French Intensive Care Society International Congress” (Annals of Intensive Care, 2018)

These compounds were tested on tramadol-induced seizures (assay: not given). Settings: 75 mg kg tramadol IP; 'by contrast' = seizures not abolished.

SMILES | tramadol-induced seizures after pretreatment
CN1CCC(=C2c3ccccc3C=Cc3ccccc32)CC1 [cyproheptadine] | by contrast
CC(C)(C(=O)O)c1ccc(C(O)CCCN2CCC(C(O)(c3ccccc3)c3ccccc3)CC2)cc1 (stereo not drawn) [fexofenadine] | by contrast
C=CCN1CC[C@]23c4c5ccc(O)c4O[C@H]2C(=O)CC[C@@]3(O)[C@H]1C5 [naloxone] | by contrast

Each compound was assayed on tramadol-overdosed rats (assay: Antidotes for tramadol overdose: seizures, plethysmography, sedation, EEG). Settings: 75 mg kg IP tramadol; diazepam 1.77 mg kg IP; naloxone 2 mg kg IV bolus then 4 mg kg h.

SMILES | tramadol-induced seizures
CN1C(=O)CN=C(c2ccccc2)c2cc(Cl)ccc21 [diazepam] | abolished seizures
C=CCN1CC[C@]23c4c5ccc(O)c4O[C@H]2C(=O)CC[C@@]3(O)[C@H]1C5 [naloxone] | significantly increased seizures
COc1cccc(C2(O)CCCCC2CN(C)C)c1 (stereo not drawn) [tramadol] | electro-clinical seizures as soon as 5 min after the injection
